The list shows a part of the results.

In this assay the target is T1, MBP-FoxP1dN (Mus musculus, UniProt P58462 326-579).
T1 sequence: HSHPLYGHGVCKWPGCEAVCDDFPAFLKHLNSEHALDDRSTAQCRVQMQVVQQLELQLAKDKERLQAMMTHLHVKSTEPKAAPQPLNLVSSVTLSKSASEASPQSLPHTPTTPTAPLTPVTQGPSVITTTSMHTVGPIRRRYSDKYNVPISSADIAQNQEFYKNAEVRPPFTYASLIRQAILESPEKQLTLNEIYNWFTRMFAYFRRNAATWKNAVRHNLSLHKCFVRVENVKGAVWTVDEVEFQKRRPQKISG
The experiment in a line: PD-seq (MBP pull-down with sequencing); 20 mM Tris-HCl pH 7.5, 100 mM NaCl, 1.5 mM MgCl2, 0.4 uM protein, 0.1 uM dsDNA library, 30 min, room temperature, amylose pull-down; high values mean tight binding. The note with it: protein: recombinant; tags: His6-MBP; chain copies: 2; dsDNA, one strand shown. In short, it runs like this:
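Binding is given as reads-per-million enrichment, pull-down over input, with replicates pooled. The bait was an N-terminus-lacking mouse FoxP3 or FoxP1 fragment with a His6-MBP tag, expressed in E. coli and used at 0.4 µM with 0.1 µM Klenow-filled degenerate double-stranded DNA library for 30 min at room temperature in Tris pH 7.5 buffer with NaCl and MgCl2. Amylose resin pull-down with three washes was followed by proteinase K release, PCR barcoding and Illumina sequencing.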
On to “GATGATTGTTCTCCCAGCTGATGAATTTACTCACTCGAGTAAACAAATTTTCCTAATCTTTCTGTTCAAGCGCCATCTAC”, for which the binding signal is 1.34 RPM ratio (pull-down/input).

For “GATGATTGTTCTCCCAGCTGATGAATTTATCCCATCGAGTAAACAAATTTTCCTAATCTTTCTGTTCAAGCGCCATCTAC”, the binding signal is 1.08 RPM ratio (pull-down/input).

Consider “GATGATTGTTCTCCCAGCTGATGAATTATGGAGCTCGAGTAAACAAATTTTCCTAATCTTTCTGTTCAAGCGCCATCTAC”, for which the binding signal was 0.861 RPM ratio (pull-down/input).

Take “GATGATTGTTCTCCCAGCTGATGAATTAGATGGCTCGAGTAAACAAATTTTCCTAATCTTTCTGTTCAAGCGCCATCTAC”: the binding signal was 0.872 RPM ratio (pull-down/input).

As to “GATGATTGTTCTCCCAGCTGATGAATTCGCTACCTCGAGTAAACAAATTTTCCTAATCTTTCTGTTCAAGCGCCATCTAC”, the binding signal was 0.85 RPM ratio (pull-down/input).

On to “GATGATTGTTCTCCCAGCTGATGAATTCTACAATTCGAGTAAACAAATTTTCCTAATCTTTCTGTTCAAGCGCCATCTAC”, for which the binding signal was 1.01 RPM ratio (pull-down/input).

Turning to “GATGATTGTTCTCCCAGCTGATGAATTTGTACGTTCGAGTAAACAAATTTTCCTAATCTTTCTGTTCAAGCGCCATCTAC”, the binding signal is 1.11 RPM ratio (pull-down/input).

Turning to “GATGATTGTTCTCCCAGCTGATGAATTACTGGCATCGAGTAAACAAATTTTCCTAATCTTTCTGTTCAAGCGCCATCTAC”, the binding signal is 1.1 RPM ratio (pull-down/input).

Regarding “GATGATTGTTCTCCCAGCTGATGAATTAACATAATCGAGTAAACAAATTTTCCTAATCTTTCTGTTCAAGCGCCATCTAC”, the binding signal was 1.45 RPM ratio (pull-down/input).

For “GATGATTGTTCTCCCAGCTGATGAATTAGTACCGTCGAGTAAACAAATTTTCCTAATCTTTCTGTTCAAGCGCCATCTAC”, the binding signal was 0.989 RPM ratio (pull-down/input).

Consider “GATGATTGTTCTCCCAGCTGATGAATTATGTCCTTCGAGTAAACAAATTTTCCTAATCTTTCTGTTCAAGCGCCATCTAC”, for which the binding signal was 1.05 RPM ratio (pull-down/input).

Consider “GATGATTGTTCTCCCAGCTGATGAATTCCAATAGTCGAGTAAACAAATTTTCCTAATCTTTCTGTTCAAGCGCCATCTAC”, for which the binding signal was 0.816 RPM ratio (pull-down/input).

On to “GATGATTGTTCTCCCAGCTGATGAATTTACTGCATCGAGTAAACAAATTTTCCTAATCTTTCTGTTCAAGCGCCATCTAC”, for which the binding signal was 1.33 RPM ratio (pull-down/input).

Turning to “GATGATTGTTCTCCCAGCTGATGAATTCTACTGGTCGAGTAAACAAATTTTCCTAATCTTTCTGTTCAAGCGCCATCTAC”, the binding signal is 0.898 RPM ratio (pull-down/input).

Consider “GATGATTGTTCTCCCAGCTGATGAATTCCATGGTTCGAGTAAACAAATTTTCCTAATCTTTCTGTTCAAGCGCCATCTAC”, for which the binding signal was 0.732 RPM ratio (pull-down/input).

As to “GATGATTGTTCTCCCAGCTGATGAATTAAATCGTTCGAGTAAACAAATTTTCCTAATCTTTCTGTTCAAGCGCCATCTAC”, the binding signal is 0.876 RPM ratio (pull-down/input).

For the sequence “GATGATTGTTCTCCCAGCTGATGAATTGGTACATTCGAGTAAACAAATTTTCCTAATCTTTCTGTTCAAGCGCCATCTAC”, the binding signal was 1.1 RPM ratio (pull-down/input).

Turning to “GATGATTGTTCTCCCAGCTGATGAATTGTTTCCCTCGAGTAAACAAATTTTCCTAATCTTTCTGTTCAAGCGCCATCTAC”, the binding signal was 1.41 RPM ratio (pull-down/input).

With “GATGATTGTTCTCCCAGCTGATGAATTATTTCGATCGAGTAAACAAATTTTCCTAATCTTTCTGTTCAAGCGCCATCTAC”, the binding signal was 1.08 RPM ratio (pull-down/input).

Turning to “GATGATTGTTCTCCCAGCTGATGAATTCCATTGCTCGAGTAAACAAATTTTCCTAATCTTTCTGTTCAAGCGCCATCTAC”, the binding signal was 0.853 RPM ratio (pull-down/input).

In the case of “GATGATTGTTCTCCCAGCTGATGAATTCAATTGATCGAGTAAACAAATTTTCCTAATCTTTCTGTTCAAGCGCCATCTAC”, the binding signal was 1.02 RPM ratio (pull-down/input).

As for “GATGATTGTTCTCCCAGCTGATGAATTGCGGGCTTCGAGTAAACAAATTTTCCTAATCTTTCTGTTCAAGCGCCATCTAC”, the binding signal is 0.984 RPM ratio (pull-down/input).

Regarding “GATGATTGTTCTCCCAGCTGATGAATTCTCTGACTCGAGTAAACAAATTTTCCTAATCTTTCTGTTCAAGCGCCATCTAC”, the binding signal was 0.801 RPM ratio (pull-down/input).

Turning to “GATGATTGTTCTCCCAGCTGATGAATTTTAGCACTCGAGTAAACAAATTTTCCTAATCTTTCTGTTCAAGCGCCATCTAC”, the binding signal was 0.872 RPM ratio (pull-down/input).

For “GATGATTGTTCTCCCAGCTGATGAATTGATATTATCGAGTAAACAAATTTTCCTAATCTTTCTGTTCAAGCGCCATCTAC”, the binding signal was 1.92 RPM ratio (pull-down/input).

Turning to “GATGATTGTTCTCCCAGCTGATGAATTAGGGTAATCGAGTAAACAAATTTTCCTAATCTTTCTGTTCAAGCGCCATCTAC”, the binding signal was 1.25 RPM ratio (pull-down/input).

For the sequence “GATGATTGTTCTCCCAGCTGATGAATTTAGTTTGTCGAGTAAACAAATTTTCCTAATCTTTCTGTTCAAGCGCCATCTAC”, the binding signal was 1.63 RPM ratio (pull-down/input).

Consider “GATGATTGTTCTCCCAGCTGATGAATTAAGGGGGTCGAGTAAACAAATTTTCCTAATCTTTCTGTTCAAGCGCCATCTAC”, for which the binding signal is 0.848 RPM ratio (pull-down/input).

With “GATGATTGTTCTCCCAGCTGATGAATTCTCTACCTCGAGTAAACAAATTTTCCTAATCTTTCTGTTCAAGCGCCATCTAC”, the binding signal is 0.739 RPM ratio (pull-down/input).

As to “GATGATTGTTCTCCCAGCTGATGAATTTGGACTCTCGAGTAAACAAATTTTCCTAATCTTTCTGTTCAAGCGCCATCTAC”, the binding signal was 0.875 RPM ratio (pull-down/input).

As for “GATGATTGTTCTCCCAGCTGATGAATTTCTCCCCTCGAGTAAACAAATTTTCCTAATCTTTCTGTTCAAGCGCCATCTAC”, the binding signal is 0.818 RPM ratio (pull-down/input).

For the sequence “GATGATTGTTCTCCCAGCTGATGAATTTGAGAAATCGAGTAAACAAATTTTCCTAATCTTTCTGTTCAAGCGCCATCTAC”, the binding signal is 1.03 RPM ratio (pull-down/input).

With “GATGATTGTTCTCCCAGCTGATGAATTGTGAGTATCGAGTAAACAAATTTTCCTAATCTTTCTGTTCAAGCGCCATCTAC”, the binding signal was 1.27 RPM ratio (pull-down/input).

As to “GATGATTGTTCTCCCAGCTGATGAATTTGATTAATCGAGTAAACAAATTTTCCTAATCTTTCTGTTCAAGCGCCATCTAC”, the binding signal is 0.986 RPM ratio (pull-down/input).

With “GATGATTGTTCTCCCAGCTGATGAATTCTATCGTTCGAGTAAACAAATTTTCCTAATCTTTCTGTTCAAGCGCCATCTAC”, the binding signal is 0.89 RPM ratio (pull-down/input).

Regarding “GATGATTGTTCTCCCAGCTGATGAATTAACAGGCTCGAGTAAACAAATTTTCCTAATCTTTCTGTTCAAGCGCCATCTAC”, the binding signal is 0.904 RPM ratio (pull-down/input).

Turning to “GATGATTGTTCTCCCAGCTGATGAATTGTTCGTATCGAGTAAACAAATTTTCCTAATCTTTCTGTTCAAGCGCCATCTAC”, the binding signal was 1.24 RPM ratio (pull-down/input).

“GATGATTGTTCTCCCAGCTGATGAATTTACGTAGTCGAGTAAACAAATTTTCCTAATCTTTCTGTTCAAGCGCCATCTAC”: the binding signal was 1.19 RPM ratio (pull-down/input).

As to “GATGATTGTTCTCCCAGCTGATGAATTTGAAAAATCGAGTAAACAAATTTTCCTAATCTTTCTGTTCAAGCGCCATCTAC”, the binding signal was 1.02 RPM ratio (pull-down/input).

As to “GATGATTGTTCTCCCAGCTGATGAATTTATGTCTTCGAGTAAACAAATTTTCCTAATCTTTCTGTTCAAGCGCCATCTAC”, the binding signal is 1.31 RPM ratio (pull-down/input).
